In the supplement of paper PMC8183993 one finds nuclei count data, which are given here for 41 compounds.

Where “and” joins values, the source holds several entries; their conditions need not be identical. Identical values can stand only once. Counter-ions that a name gives are not always drawn. ± gives the standard deviation of the averaged measurements. Whole data set: some 3,200 compounds, median “nuclei count (viability) relative to DMSO” near 99, cut for the lowest 2% near 16. The list shows a part of the results.

In this experiment the test system is U2OS. Description: nuclei count (viability) relative to DMSO (% of DMSO); higher = more viable cells. The note with it: 10 µM; 24 h. As to the method: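 Primary image-based screen in U2OS cells: compounds at 10 uM for 24 h, then a 1 h o-propargyl-puromycin (OPP) pulse, click labelling, and high-throughput microscopy. Mean cytoplasmic OPP intensity and nuclei count were normalised to DMSO wells within each plate (DMSO = 100) and averaged over triplicate plates.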
For the compound `O=C(N/N=C/c1ccc([N+](=O)[O-])o1)c1ccc(O)cc1` [Nifuroxazide], the nuclei count amounted to 96.7. Consider `Cc1cccc(Nc2cc(Cl)nc(SCC(=O)O)n2)c1C`, for which the nuclei count is 99.9 and 106. With `Cc1cc(NC(=O)c2cccc(NC(=O)/C=C/CN(C)C)c2)ccc1Nc1nccc(-c2cccnc2)n1`, the nuclei count came to 36.1. `O=C(NC(NC(=S)Nc1ccc(F)c([N+](=O)[O-])c1)C(Cl)(Cl)Cl)C(c1ccccc1)c1ccccc1` (stereo unspecified) yielded a nuclei count of 70.6 ± 4.2.

In the case of `N#CC(c1ccnc(NCCc2cccnc2)n1)c1nc2ccccc2s1` (stereo unspecified) [JNK Inhibitor V], the nuclei count was found to be 71.6. The same measure for `OCc1ccc(O[C@@H]2O[C@H](CO)[C@@H](O)[C@H](O)[C@H]2O)cc1` [Gastrodin (Gastrodine)]: 94.5.

`CN(N=O)C(=O)N[C@@H](C=O)[C@@H](O)[C@H](O)[C@H](O)CO` [Streptozocin] yielded a nuclei count of 93.7. `CN(N=O)C(=O)N[C@@H](C=O)[C@@H](O)[C@H](O)[C@H](O)CO` [Streptozotocin]: the nuclei count was found to be 94.8. `Cn1cc(C2=C(c3ccc(Cl)cc3Cl)C(=O)NC2=O)c2ccccc21`: the nuclei count is 94.8 and 92.7.

Turning to `CCC(=O)[C@@]1(C)[C@H](C)C[C@H]2[C@@H]3CCC4=CC(=O)C=C[C@]4(C)[C@H]3[C@@H](O)C[C@@]21C` [Rimexolone], the nuclei count turned out to be 100. The compound `Cc1ccc(C(=O)Nc2ccc(S(=O)(=O)O)c3cc(S(=O)(=O)O)cc(S(=O)(=O)O)c23)cc1NC(=O)c1cccc(NC(=O)Nc2cccc(C(=O)Nc3cc(C(=O)Nc4ccc(S(=O)(=O)O)c5cc(S(=O)(=O)O)cc(S(=O)(=O)O)c45)ccc3C)c2)c1` [Suramin hexasodium salt] came in with a nuclei count of 93.5. For `CCc1cc(C(N)=S)ccn1` [Ethionamide] the value was 99.6; for `CC[C@]12CCCN3CCc4c(n(c5ccccc45)C(=O)C1)[C@@H]32` [Eburnamonine (-)], 69.4. Compound `CCn1cc(C(=O)O)c(=O)c2cc(F)c(N3CCN(C)CC3)cc21` [Pefloxacine] had a nuclei count of 105.

With `NC(=O)c1ccncc1` [Isonicotinamide], the nuclei count was 99.6.

Compound `CC#CCOC(=O)c1c(C)nc2sc3c(c2c1N)CCC(O)C3` (stereo unspecified) gave a nuclei count of 102.

As for `CCCCCCCCCCC(C)(C)C(=O)Nc1c(OC)cc(OC)cc1OC`, the nuclei count is 102. For `C[C@@H]1CN(c2c(F)c(N)c3c(=O)c(C(=O)O)cn(C4CC4)c3c2F)C[C@H](C)N1` [Sparfloxacin] the value was 97.5. In turn, `CCOC(=O)c1c(C)[nH]c2ccc3c(c12)CN1CCc2cc(OC)ccc2C1O3` (stereo unspecified) gave a nuclei count of 92.1. `CC[C@@H]1Cn2c(c3nc(-c4ccccc4)nc-3n(C)c2=O)N1` had a nuclei count of 93.4. `COc1cc(NC(=O)c2ccc(-c3ccc(Cl)cc3)o2)cc(OC)c1`: the nuclei count is 103. The same measure for `CCOC(=O)CCC(=O)O[C@H]1[C@H](O[C@@H]2[C@@H](C)[C@H](O[C@H]3C[C@@](C)(OC)[C@@H](O)[C@H](C)O3)[C@@H](C)C(=O)O[C@H](CC)[C@@](C)(O)[C@H](O)[C@@H](C)C(=O)[C@H](C)C[C@@]2(C)O)O[C@H](C)C[C@@H]1N(C)C` [Erythromycin Ethylsuccinate]: 104. For the compound `C[C@]12C=CC(=O)C=C1CC[C@@H]1C2=CC[C@]2(C)[C@@H](C(=O)CN3CCN(c4cc(N5CCCC5)nc(N5CCCC5)n4)CC3)CC[C@@H]12`, the nuclei count was 99.7.

As to `C=CCn1c(=O)n([C@@H]2O[C@H](CO)[C@@H](O)[C@H]2O)c2nc(N)[nH]c(=O)c21`, the nuclei count was 98.2. As for `C[C@]12C=CC(=O)C=C1CC[C@@H]1[C@@H]2C(=O)C[C@@]2(C)[C@H]1CC[C@]2(O)C(=O)CO` [Prednisone (Adasone)], the nuclei count is 102. `C[C@]12C=CC(=O)C=C1CC[C@@H]1[C@@H]2C(=O)C[C@@]2(C)[C@H]1CC[C@]2(O)C(=O)CO` [Prednisone] registered a nuclei count of 101.

`Nc1ncnc2nc(-c3ccc(N4CCOCC4)nc3)cc(-c3cccc(Br)c3)c12` [ABT 702 dihydrochloride] came in with a nuclei count of 105. The compound `CC1(C)[C@@H](O[C@H]2O[C@H](C(=O)O)[C@@H](O)[C@H](O)[C@H]2O[C@@H]2O[C@H](C(=O)O)[C@@H](O)[C@H](O)[C@H]2O)CC[C@]2(C)[C@H]3C(=O)C=C4[C@@H]5C[C@@](C)(C(=O)O)CC[C@]5(C)CC[C@@]4(C)[C@]3(C)CC[C@@H]12` [Glycyrrhizic acid] returned a nuclei count of 101. `CC1(C)[C@@H](O[C@H]2O[C@H](C(=O)O)[C@@H](O)[C@H](O)[C@H]2O[C@@H]2O[C@H](C(=O)O)[C@@H](O)[C@H](O)[C@H]2O)CC[C@]2(C)[C@H]3C(=O)C=C4[C@@H]5C[C@@](C)(C(=O)O)CC[C@]5(C)CC[C@@]4(C)[C@]3(C)CC[C@@H]12` [Ammonium Glycyrrhizinate (AMGZ)]: the nuclei count turned out to be 101. The compound `CNC(=C[N+](=O)[O-])NCCSCc1csc(CN(C)C)n1` [Nizatidine] had a nuclei count of 92.8.

Take `O=C(O)C1=CCNCC1` [Isoguvacine hydrochloride]: the nuclei count was determined as 106. As to `CCC1=C[C@@H]2CN(C1)Cc1c([nH]c3ccccc13)[C@@](C(=O)OC)(c1cc3c(cc1OC)N(C)[C@H]1[C@@](O)(C(=O)OC)[C@H](OC(C)=O)[C@]4(CC)C=CCN5CC[C@]31[C@@H]54)C2` [Vinorelbine (Navelbine)], the nuclei count was determined as 16.1. For `CCn1c(=O)[nH]c2ccccc21` the value was 93.4; for `CC(C)CN(C[C@@H](O)[C@H](Cc1ccccc1)NC(=O)O[C@H]1CCOC1)S(=O)(=O)c1ccc(N)cc1` [Amprenavir (Agenerase)], 112. Take `C=CC(=O)Nc1cccc(Nc2nc(Nc3ccc(NC4CN(CCF)C4)cc3OC)ncc2C(F)(F)F)c1`: the nuclei count worked out at 20.7. The compound `COc1cc(C)nc(-n2nc(C)cc2OC)n1` [Epirizole] yielded a nuclei count of 102.

`CS(=O)(=O)Nc1ccc([N+](=O)[O-])cc1Oc1ccccc1` [Nimesulide] displayed a nuclei count of 103 ± 6.9. In turn, `CCn1cc(C(=O)O)c(=O)c2cc(F)c(N3CCNC(C)C3)c(F)c21` (stereo unspecified) [Lomefloxacin hydrochloride] returned a nuclei count of 98.5. With `O=c1[nH]c(=O)n([C@H]2C[C@H](O)[C@@H](CO)O2)cc1F` [Floxuridine (Fludara)], the nuclei count worked out at 81.6. For `O=c1[nH]c(=O)n([C@H]2C[C@H](O)[C@@H](CO)O2)cc1F` [Floxuridine] the value was 66.8. Consider `CNNCc1ccc(C(=O)NC(C)C)cc1` [Procarbazine hydrochloride], for which the nuclei count was determined as 114.
